# According to the supplement of paper PMC11417369:
# ± gives the standard deviation of the averaged measurements. The list shows a part of the results.
# Test system: PfAP2-LT AP2 domain (GST-tagged)
# Assay: gcPBM binding intensity (ln(normalized median fluorescence intensity)); higher = stronger DNA binding
# Outline: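 An Agilent 4 × 180k array of primer-extended double-stranded 36-bp intergenic genomic probes, with negative controls, was incubated for 1 h with GST-tagged P. falciparum DNA-binding domains expressed in E. coli. Alexa488 anti-GST antibody detected bound protein, scanned at 488 nm. Binding intensity is the highest Masliner-normalised natural-log median intensity across replicate spots of either probe orientation.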
row,Sequence,gcPBM binding intensity (ln)
1,TTTATTGATAATATATATATATATATATATATATAT [GTGCAC_negctrl_site552],9.15 ± 0.13
2,AGTCTATAGTAATTTACACACAAAAAAATATCAGGA [CACACA_site7620],9.1 ± 0.4
3,AGTAGTCTGGAGAAAAGTACATAGTATCTGGTAGCT [XGTACX_site2027],8.85 ± 0.52
4,CCTAAATAAATGGACACACACATATATATATATATA [CACACA_site1439],9.85 ± 0.29
5,CTTATATTAAGTATTACACACATATATATAAATGCA [CACACA_site4581],8.8 ± 0.42
6,TTTTACGTAATATTTATACACACGAACCTTATTAAT [CACACA_site2300],8.9 ± 0.42
7,TAGAAATAAGAAAAATGTACATATAATATTGAAAGT [XGTACX_site3043],9.06 ± 0.54
8,TATATATATATAAGAAGTACAGAAAATTAGAAAAAA [XGTACX_site8773],8.72 ± 0.48
9,AGAAAAATCTAAATTCGTACATAACGTTTAAACATA [XGTACX_site2511],8.51 ± 0.42
10,AGGATATAAAGTTGTGCATGTCAAGTGCACCGTATT [TGCATGCA_site451],8.99 ± 0.34
11,GATGTGTATATTAAATGTACGAACAGTTGAGGCGAA [XGTACX_site7853],9.13 ± 0.52
12,CAGCATGGTATACCTATAAAATATATATACTAACAT [TGCATGCA_negctrl_site51],8.83 ± 0.51
13,ATGTTACACAGACACACACACATAAAAAAACAAAAA [CACACA_site7516],9.6 ± 0.42
14,TTTTTAAAAAATAAGAAAAAATAAATATATTACAAA [XGTACX_negctrl_site191],8.2 ± 0.42
15,GGCATATATACATATGGTACACATTTATTAATACCG [XGTACX_site2710],9.04 ± 0.31
16,CACATACATATATATACACACAAATATATATACGCA [CACACA_site791],9.2 ± 0.35
17,AGAACATGCAAACATGCACACAGAAAAAAAAAATAT [CACACA_site8442],9.31 ± 0.42
18,GTTTTATTCCATTATTGTACTTAATATAAAGAAACT [XGTACX_site3054],8.61 ± 0.41
19,ATAAATTGAAGTAAATTTGACCTTTTTTTTTTTTTT [GTGCAC_negctrl_site354],8.38 ± 0.43
20,ATAATAATATGTGGGTGTACATATACACATATATAT [XGTACX_site4356],9.21 ± 0.4
21,AAAAAATATAATAATTGTACACATGCACACACAAAT [XGTACX_site1563],9.53 ± 0.42
22,TTTCATATCTTGTCAAGTACATATTTTTATTTTCTT [XGTACX_site2160],8.82 ± 0.44

row,Sequence,gcPBM binding intensity (ln)
1,ACTTAATATCGGTACACACACAAGATAAGAATTATG [CACACA_site894],9.37 ± 0.39
2,AGAGGAGTAAAACAAAACAAAGAGAAATAAACACAC [XGTACX_negctrl_site386],9.31 ± 0.33
3,AATTAATAAATATTATATGTTAATATTTTTTTTGTT [CACACA_negctrl_site1692],8.42 ± 0.54
4,ATACTAAAAATGAATGTACACATATATATATATATA [TGCATGCA_negctrl_site209],9.86 ± 0.38
5,ATATATCTTTATATAGTGCATTAAATATGTTGTAAT [GTGCAC_site9953],8.62 ± 0.44
6,TATAATAAAATATTTTGTACGTATATTTTAATATTT [XGTACX_site2582],8.59 ± 0.38
7,AAAAAAAATAAAAATAGTACCCAAAAAATTATGAAT [XGTACX_site6641],8.76 ± 0.46
8,TTTTTATAAAAATGAACACACACATATATATATATA [CACACA_site9160],9.325 ± 0.05
9,AATAACACTATTTAACGTACAAAAAAAAAAAAGAAA [XGTACX_site3721],8.7 ± 0.58
10,ACAAAAAAAAAAAAAAAAAGAAGAATATATCTATAT [CACACA_negctrl_site759],8.38 ± 0.57
11,TATCATACAATATTCACACAAATAAATTGACATATT [CACACA_site5891],8.75 ± 0.37
12,CACAGACACGGACACACACACACAAAAAAAAAAAGA [CACACA_site4436],10.1 ± 0.55
13,TATTAAAAAAATATTTGTACTTAAAATTTATTATAT [XGTACX_site1467],8.29 ± 0.59
14,TATTTTCTTTAATTAATTATTGGTCTGAATGGGGTT [CACACA_negctrl_site418],8.78 ± 0.36
15,AAAAAGGAAATAATAACACACATTAGTAATTATAAA [CACACA_site7573],8.89 ± 0.45
16,AATACTTTTTTCTGTACACACTTGATTTACTATAAT [CACACA_site5544],9.01 ± 0.45
17,TTCATATTCGATAAAGTGCATTAATTTTATTTATCA,8.4 ± 0.42
18,TCCAATTGTTCTAGTGTGCACATAAATAAATCTCAT,9.07 ± 0.4
19,TATTACATACATATCTGTACATATATTAATGCACAA [XGTACX_site3315],8.72 ± 0.44
20,TATTAATGCAAATGTTATATGTGCATACATAAATGT [CACACA_negctrl_site790],8.73 ± 0.42
21,AAAAATATTAAAAAAGGTACACAGCATATCTCTTTT [XGTACX_site65],8.79 ± 0.43
22,AAGAGTTAAAAAAATACACACATATAGATTTTTTTA [CACACA_site7018],8.83 ± 0.41

row,Sequence,gcPBM binding intensity (ln)
1,ATAAATAAAAAAGAAAGAAAGAAAGAAACAAACAAA [CACACA_negctrl_site1198],8.73 ± 0.52
2,AGCACATTATTCAAAAGTACAAATAGGTATTGTATA [XGTACX_site6107],8.81 ± 0.45
3,TTTTTTTCTTTTTACATACACACAAAAAAATAAAAT [CACACA_site580],8.52 ± 0.38
4,AATATAAAAAAAAAAAAAAAAAAAAAAAAAAAGACA [CACACA_negctrl_site983],8.66 ± 0.5
5,TTGTTAATATGATAAAAGAGGAATATTCTCTTCCTA [GTGCAC_negctrl_site659],8.26 ± 0.37
6,TAAAAAAAAACTCATGCACACAATATTATGAAAAAG [CACACA_site665],9.02 ± 0.45
7,TTATTTACAACTTCAAATTATGTGTAATACTACTAT [CACACA_negctrl_site741],8.73 ± 0.52
8,AAATATTATGTACGCACACACATTTTTAATATATAA [CACACA_site3851],9.19 ± 0.3
9,AAATTAATGTATATGTGAAGCAAGGGATGCGGCAGA [CACACA_negctrl_site406],9.12 ± 0.33
10,ATATATATATATATATAATATATAATATATATATAT [CACACA_negctrl_site96],9.01 ± 0.11
11,CAATTATTGTAATGCATGCACTGAATATAAAAAGAA,9.02 ± 0.34
12,TTTATATGTATTAAGTGTACACATATAATGTATTTT [XGTACX_site16],8.83 ± 0.4
13,AACAAATAAAGCTATGACATGTTAAAATTGTTTCAC [XGTACX_negctrl_site67],8.85 ± 0.45
14,ATATCTAAATATATTACACACAGATATCTTCCTATA [CACACA_site3701],9.09 ± 0.38
15,AGAGAAAAATATTTGGACAAAAATAATATAATATAT [CACACA_negctrl_site656],8.7 ± 0.48
16,ATAAAGGAATTTTATACACACAACATATAAATATAT [CACACA_site7365],9.02 ± 0.4
17,ATTCGTATGAGCATAACACACAATATCGATATTTCT [CACACA_site4165],9.06 ± 0.41
18,TCTTTTCAATTATCCTATATTCTTTTATTTTTAATT [GTGCAC_negctrl_site326],8.69 ± 0.52
19,CATACACCCATACATACACACATACATACACCCATA [CACACA_site5124],9.56 ± 0.31
20,ATAAAACAACAAAGAAAATGAAAAAGTAAAAACATA [CACACA_negctrl_site596],8.88 ± 0.46
21,TATTTATAAAAAGATTGTACATTTTTTATTATTGTA [XGTACX_site6016],8.38 ± 0.59
22,TCCTATAATAACGTCACACATTAAATTTAATAAATT [CACACA_site4506],8.56 ± 0.42

row,Sequence,gcPBM binding intensity (ln)
1,AGTGCATACATGAATTGTACTTTAAAATAAATTCTA [XGTACX_site8156],8.59 ± 0.38
2,AAAAAAAAAAAAAAAACACACATATATCTATAATAT [CACACA_site6665],8.8 ± 0.4
3,CATTATTTATTTTAATGTACTTATTTTTAAATTGGT [XGTACX_site8038],8.53 ± 0.47
4,TATACAAAATATTTTACACACACATATATATACATA [CACACA_site2616],9.33 ± 0.24
5,AATTAAAATACAAATGTATGCATGTCTCATATAGAA [TGCATGCA_site822],8.78 ± 0.43
6,TTACGAATTACATATTGTACATATGCACAATTTTAA [XGTACX_site6802],8.69 ± 0.35
7,TACATAATTTAAAATTTTATAAGTTGTAATTCGTTT [XGTACX_negctrl_site308],8.48 ± 0.49
8,AGAAATTATAAATACCTACACACTTATCAAAATAAA [CACACA_site2264],8.76 ± 0.5
9,TAAGACATGATATATACACACCTTGTTTTAATTTTC [CACACA_site5282],8.86 ± 0.45
10,TATATCTGTAAATGCACACATATGTGGATATACTTA [CACACA_site5013],9.05 ± 0.31
11,GTTCATTCATTTTAATGTACAAATTTAACTTTTTCT [XGTACX_site680],8.56 ± 0.44
12,TCTAATAATATATACACACACATATATATTTATATA [CACACA_site2032],9.06 ± 0.33
13,TGCTACATTCTATGTACACACATATACATATATATA [CACACA_site893],8.96 ± 0.3
14,TATAAATATAAATACACACACATATAGATTATAGAT [CACACA_site6429],9.5 ± 0.38
15,GATAAAGTAAAAATATGTACATATATATTTTAAGTT [XGTACX_site6439],8.88 ± 0.56
16,GCTACGTAAAAAATATGTACATATGAAATATTTTGC [XGTACX_site5111],8.86 ± 0.3
17,TTATATATCTATAATACACACATAATAATATATTTA [CACACA_site7423],8.65 ± 0.34
18,TTTCATTGGTTTATAAAATTATGAGATCTTAAAGAC [CACACA_negctrl_site1484],8.26 ± 0.4
19,TCTGTAAAGTAATGGACACACAATATATCCATTTAT [CACACA_site1536],8.88 ± 0.39
20,GAATAATATGGACATACACACATATACATACAGATA [CACACA_site5200],9.35 ± 0.42
21,ATATATATATATATATGTACATATATTTATATTTAT [XGTACX_site6179],9.43 ± 0.13
22,ATGCATAAATTTTGAAGTACAAAAAAAAAAAATAAA [XGTACX_site7282],8.61 ± 0.52
